# Experimental data taken from the supplement of paper PMC8728848.
# The list shows a part of the results.
# Tests used:
# Assay in all cases: glycan array binding signal (z-score within array); higher = stronger binding
# Settings in all cases: glycan notation: IUPAC condensed, linker removed
# [1] = biological target: Neu5Ac(a2-6)Gal(b1-4)GlcNAc(b1-3)Gal(b1-4)GlcNAc(b1-3)GalNAc
# Procedure, shortened: (§1)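 Columns mapping to the same glycan were averaged after glycan names were converted to IUPAC-condensed notation. The data come from 3228 arrays in the Consortium for Functional Glycomics database, limited to those with an available protein sequence. Binding is reported as a within-array Z-score averaged across arrays of one protein sequence and across linkers.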
# [2] = biological target: Neu5Ac(a2-6)Gal(b1-4)GlcNAc(b1-3)Gal(b1-4)GlcNAc(b1-3)[Neu5Ac(a2-6)Gal(b1-4)GlcNAc(b1-3)Gal(b1-4)GlcNAc(b1-6)]GalNAc
# Procedure, shortened: as §1
# [3] = biological target: Neu5Ac(a2-6)Gal(b1-4)GlcNAc(b1-3)Gal(b1-4)GlcNAc(b1-6)[Gal(b1-3)]GalNAc
# Procedure, shortened: as §1
# [4] = biological target: Neu5Ac(a2-6)Gal(b1-4)GlcNAc(b1-3)Gal(b1-4)[Fuc(a1-3)]GlcNAc(b1-3)Gal(b1-4)[Fuc(a1-3)]GlcNAc
# Procedure, shortened: as §1
# [5] = biological target: Neu5Ac(a2-6)Gal(b1-4)GlcNAc(b1-3)GalNAc
# Procedure, shortened: as §1
# [6] = biological target: Neu5Ac(a2-6)Gal(b1-4)GlcNAc(b1-3)[Neu5Ac(a2-6)Gal(b1-4)GlcNAc(b1-6)]GalNAc
# Procedure, shortened: as §1
# [7] = biological target: Neu5Ac(a2-6)Gal(b1-4)GlcNAc(b1-6)GalNAc
# Procedure, shortened: as §1
# [8] = biological target: Neu5Ac(a2-6)Gal(b1-4)GlcNAc(b1-6)[Gal(b1-3)GlcNAc(b1-3)]Gal(b1-4)Glc
# Procedure, shortened: as §1
# [9] = biological target: Neu5Ac(a2-6)Gal(b1-4)GlcNAc(b1-6)[Gal(b1-3)]GalNAc
# Procedure, shortened: as §1
# [10] = biological target: Neu5Ac(a2-6)Gal(b1-4)GlcNAc6S
# Procedure, shortened: as §1
# Neu5Ac(a2-6)GalNAc = biological target: Neu5Ac(a2-6)GalNAc
# Procedure, shortened: as §1
# [11] = biological target: Neu5Ac(a2-6)GalNAc(b1-4)GlcNAc
# Procedure, shortened: as §1
# [12] = biological target: Neu5Ac(a2-6)GalNAc(b1-4)GlcNAc6S
# Procedure, shortened: as §1
# [13] = biological target: Neu5Ac(a2-6)GlcNAc(b1-4)GlcNAc
# Procedure, shortened: as §1
# [14] = biological target: Neu5Ac(a2-6)GlcNAc(b1-4)GlcNAc(b1-4)GlcNAc
# Procedure, shortened: as §1
# Neu5Ac(a2-8)Neu5Ac = biological target: Neu5Ac(a2-8)Neu5Ac
# Procedure, shortened: as §1
# [15] = biological target: Neu5Ac(a2-8)Neu5Ac(a2-3)Gal(b1-3)GalNAc(b1-4)[Neu5Ac(a2-3)]Gal(b1-4)Glc
# Procedure, shortened: as §1
# [16] = biological target: Neu5Ac(a2-8)Neu5Ac(a2-3)Gal(b1-3)GalNAc(b1-4)[Neu5Ac(a2-8)Neu5Ac(a2-3)]Gal(b1-4)Glc
# Procedure, shortened: as §1
# [17] = biological target: Neu5Ac(a2-8)Neu5Ac(a2-3)Gal(b1-4)Glc
# Procedure, shortened: as §1
# [18] = biological target: Neu5Ac(a2-8)Neu5Ac(a2-3)Gal(b1-4)GlcNAc
# Procedure, shortened: as §1
# [19] = biological target: Neu5Ac(a2-8)Neu5Ac(a2-3)[Gal(b1-3)GalNAc(b1-4)]Gal(b1-4)Glc
# Procedure, shortened: as §1
# [20] = biological target: Neu5Ac(a2-8)Neu5Ac(a2-3)[GalNAc(b1-4)]Gal(b1-4)Glc
# Procedure, shortened: as §1
# [21] = biological target: Neu5Ac(a2-8)Neu5Ac(a2-8)Neu5Ac
# Procedure, shortened: as §1
# [22] = biological target: Neu5Ac(a2-8)Neu5Ac(a2-8)Neu5Ac(a2-3)Gal(b1-4)Glc
# Procedure, shortened: as §1
# [23] = biological target: Neu5Ac(a2-8)Neu5Ac(a2-8)Neu5Ac(a2-3)[Gal(b1-3)GalNAc(b1-4)]Gal(b1-4)Glc
# Procedure, shortened: as §1
# [24] = biological target: Neu5Ac(a2-8)Neu5Ac(a2-8)Neu5Ac(a2-3)[GalNAc(b1-4)]Gal(b1-4)Glc
# Procedure, shortened: as §1
# [25] = biological target: Neu5Ac(a2-8)Neu5Ac(a2-8)Neu5Ac(a2-8)Neu5Ac(a2-3)[GalNAc(b1-4)]Gal(b1-4)Glc
# Procedure, shortened: as §1
# [26] = biological target: Neu5Ac(a2-8)Neu5Gc(a2-3)Gal(b1-4)GlcNAc
# Procedure, shortened: as §1
# [27] = biological target: Neu5Ac(b2-6)Gal(b1-4)GlcNAc
# Procedure, shortened: as §1
# Neu5Ac(b2-6)GalNAc = biological target: Neu5Ac(b2-6)GalNAc
# Procedure, shortened: as §1
# [28] = biological target: Neu5Ac9Ac(a2-3)Gal(b1-3)GlcNAc
# Procedure, shortened: as §1
# [29] = biological target: Neu5Ac9Ac(a2-3)Gal(b1-4)GlcNAc
# Procedure, shortened: as §1
# [30] = biological target: Neu5Ac9Ac(a2-6)Gal(b1-4)GlcNAc
# Procedure, shortened: as §1
# [31] = biological target: Neu5Gc(a2-3)Gal(b1-3)GlcNAc
# Procedure, shortened: as §1
# [32] = biological target: Neu5Gc(a2-3)Gal(b1-3)[Fuc(a1-4)]GlcNAc
# Procedure, shortened: as §1
# Neu5Gc(a2-3)Gal(b1-4)Glc = biological target: Neu5Gc(a2-3)Gal(b1-4)Glc
# Procedure, shortened: as §1
# [33] = biological target: Neu5Gc(a2-3)Gal(b1-4)GlcNAc
# Procedure, shortened: as §1
# [34] = biological target: Neu5Gc(a2-3)Gal(b1-4)GlcNAc(b1-3)Gal(b1-4)GlcNAc(b1-2)Man(a1-3)[Neu5Gc(a2-3)Gal(b1-4)GlcNAc(b1-3)Gal(b1-4)GlcNAc(b1-2)Man(a1-6)]Man(b1-4)GlcNAc(b1-4)GlcNAc
# Procedure, shortened: as §1
# [35] = biological target: Neu5Gc(a2-3)Gal(b1-4)[Fuc(a1-3)]GlcNAc
# Procedure, shortened: as §1
# [36] = biological target: Neu5Gc(a2-6)Gal(b1-4)GlcNAc
# Procedure, shortened: as §1
# Neu5Gc(a2-6)GalNAc = biological target: Neu5Gc(a2-6)GalNAc
# Procedure, shortened: as §1
# [37] = biological target: Neu5Gc(a2-8)Neu5Ac(a2-3)Gal(b1-4)GlcNAc
# Procedure, shortened: as §1
# [38] = biological target: Neu5Gc(a2-8)Neu5Gc(a2-3)Gal(b1-4)GlcNAc
# Procedure, shortened: as §1
# [39] = biological target: Neu5Gc(a2-8)Neu5Gc(a2-3)Gal(b1-4)GlcNAc(b1-3)Gal(b1-4)GlcNAc
# Procedure, shortened: as §1
# [40] = biological target: Neu5Gc(a2-8)Neu5Gc(a2-6)Gal(b1-4)GlcNAc
# Procedure, shortened: as §1
# [41] = biological target: Neu5Gc(b2-6)Gal(b1-4)GlcNAc
# Procedure, shortened: as §1
binder,measurement,setting,value
SAOUHSC 00176 (Staphylococcus aureus) (protein) MSKILKCITLAVVMLLIVTACGPNRSKEDIDKALNKDNSKDKPNQLTMWVDGDKQMAFYKKITDQYTKKTGIKVKLVNIGQNDQLENISLDAPAGKGPDIFFLAHDNTGSAYLQGLAAEIKLSKDELKGFNKQALKAMNYDNKQLALPAIVETTALFYNKKLVKNAPQTLEEVEANAAKLTDSKKKQYGMLFDAKNFYFNYPFLFGNDDYIFKKNGSEYDIHQLGLNSKHVVKNAERLQKWYDKGYLPKAATHDVMIGLFKEGKVGQFVTGPWNINEYQETFGKDLGVTTLPTDGGKPMKPFLGVRGWYLSEYSKHKYWAKDLMLYITSKDTLQKYTDEMSEITGRVDVKSSNPNLKVFEKQARHAEPMPNIPEMRQVWEPMGNASIFISNGKNPKQALDEATNDITQNIKILHPSQNDKKGD,glycan array binding signal (z-score),[1],-0.095
same,glycan array binding signal (z-score),[2],-0.02
same,glycan array binding signal (z-score),[3],-0.046
same,glycan array binding signal (z-score),[4],-0.184
same,glycan array binding signal (z-score),[5],-0.138
same,glycan array binding signal (z-score),[6],-0.056
same,glycan array binding signal (z-score),[7],0.156
same,glycan array binding signal (z-score),[8],-0.057
same,glycan array binding signal (z-score),[9],0.091
same,glycan array binding signal (z-score),[10],-0.106
same,glycan array binding signal (z-score),Neu5Ac(a2-6)GalNAc,-0.005
same,glycan array binding signal (z-score),[11],-0.156
same,glycan array binding signal (z-score),[12],-0.15
same,glycan array binding signal (z-score),[13],-0.087
same,glycan array binding signal (z-score),[14],2.56
same,glycan array binding signal (z-score),Neu5Ac(a2-8)Neu5Ac,-0.022
same,glycan array binding signal (z-score),[15],0.025
same,glycan array binding signal (z-score),[16],0.399
same,glycan array binding signal (z-score),[17],-0.097
same,glycan array binding signal (z-score),[18],0.287
same,glycan array binding signal (z-score),[19],-0.114
same,glycan array binding signal (z-score),[20],-0.202
same,glycan array binding signal (z-score),[21],-0.055
same,glycan array binding signal (z-score),[22],0.005
same,glycan array binding signal (z-score),[23],-0.098
same,glycan array binding signal (z-score),[24],-0.207
same,glycan array binding signal (z-score),[25],0.007
same,glycan array binding signal (z-score),[26],-0.191
same,glycan array binding signal (z-score),[27],-0.11
same,glycan array binding signal (z-score),Neu5Ac(b2-6)GalNAc,-0.045
same,glycan array binding signal (z-score),[28],-0.096
same,glycan array binding signal (z-score),[29],0.096
same,glycan array binding signal (z-score),[30],0.029
same,glycan array binding signal (z-score),[31],-0.053
same,glycan array binding signal (z-score),[32],-0.133
same,glycan array binding signal (z-score),Neu5Gc(a2-3)Gal(b1-4)Glc,-0.048
same,glycan array binding signal (z-score),[33],-0.058
same,glycan array binding signal (z-score),[34],0.091
same,glycan array binding signal (z-score),[35],0.044
same,glycan array binding signal (z-score),[36],-0.015
same,glycan array binding signal (z-score),Neu5Gc(a2-6)GalNAc,-0.029
same,glycan array binding signal (z-score),[37],-0.09
same,glycan array binding signal (z-score),[38],-0.059
same,glycan array binding signal (z-score),[39],-0.088
same,glycan array binding signal (z-score),[40],-0.066
same,glycan array binding signal (z-score),[41],-0.083
